# Values joined by “and” are separate entries in the source; they are usually repeats but may differ in a detail not shown here. Identical values can stand only once. This list was built around the results that the source calls inconclusive (neither active nor inactive); the mix of calls is not that of the screen. Potencies of inconclusive entries are doubtful fits and often do not repeat. Active and inactive are the calls of the source. Calls come from the whole dose curve; as a rule, active = well fitted curve in the direction sought with a large enough effect; inconclusive = small, poorly fitted or top-dose-only effect, or another doubt; inactive = no such curve, though single readings can be large; an effect the other way counts as inactive or inconclusive.
# What was measured:
# [1] = qHTS of pediatric cancer cell lines to identify multiple opportunities for drug repurposing: Primary screen for SK-N-SH cells (AID 1347098); conditions: SK-N-SH viability, CellTiter-Glo luminescence, 48 h; activity change, negative = cytotoxic: at 57 µM (top of the series); note: nearly all actives have a fitted effect of over 65% in size;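 for activity change, negative = cytotoxic: DMSO served as neutral control and bortezomib at 2.3 µM as positive control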
# Summary of the method: (§1)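 Cells (500-1,000/well) rested 5 h, then received compounds for 48 h; metabolically active cells were measured by CellTiter-Glo luminescence. Final concentrations spanned up to 46 µM (MIPE, 11-point) or 0.59 nM-46 µM (NPC, 8-point) in primary screens, 11-point in follow-ups.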
# [2] = qHTS of pediatric cancer cell lines to identify multiple opportunities for drug repurposing: Primary screen for NB1643 cells (AID 1347099); note: nearly all actives have a fitted effect of over 50% in size
# Summary of the method: (§2)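 Following a 5-hour attachment period, cells at 500-1,000/well received compounds and were cultured for 48 hours. CellTiter-Glo was added and luminescence read to estimate viable, metabolically active cells.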
# [3] = qHTS of pediatric cancer cell lines to identify multiple opportunities for drug repurposing: Primary screen for LAN-5 cells (AID 1347100); conditions: LAN-5 neuroblastoma viability, CellTiter-Glo luminescence, 48 h; activity change, negative = cytotoxic: at 46 µM (top of the series)
# Summary of the method: (§3)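 Cells (500-1,000/well) in growth media were settled 5 h at 37 degrees C, then given compounds for 48 h. Viability was read as CellTiter-Glo luminescence. Primary runs used MIPE at 11 points (0.78 nM-46 µM) and NPC at 8 points (0.59 nM-46 µM); follow-ups used 11 points.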
# [4] = qHTS of pediatric cancer cell lines to identify multiple opportunities for drug repurposing: Primary screen for RD cells (AID 1347104); note: nearly all actives have a fitted effect of over 55% in size
# Summary of the method: as §2
# [5] = qHTS of pediatric cancer cell lines to identify multiple opportunities for drug repurposing: Primary screen for MG 63 (6-TG R) cells (AID 1347105); conditions: MG 63 (6-TG R) viability, CellTiter-Glo, 48 h; activity change, negative = cytotoxic: at 46 µM (top of the series); note: nearly all actives have a fitted effect of over 50% in size
# Summary of the method: as §2
# [6] = qHTS of pediatric cancer cell lines to identify multiple opportunities for drug repurposing: Primary screen for BT-12 cells (AID 1347101); note: nearly all actives have a fitted effect of over 25% in size
# Summary of the method: as §1
# [7] = qHTS of pediatric cancer cell lines to identify multiple opportunities for drug repurposing: Primary screen for OHS-50 cells (AID 1347103); note: nearly all actives have a fitted effect of over 40% in size
# Summary of the method: as §1
# [8] = qHTS of pediatric cancer cell lines to identify multiple opportunities for drug repurposing: Primary screen for Rh18 cells (AID 1347102); conditions: Rh18 rhabdomyosarcoma viability, CellTiter-Glo luminescence, 48 h; activity change, negative = cytotoxic: at 46 µM (top of the series); note: nearly all actives have a fitted effect of over 65% in size
# Summary of the method: as §3
# [9] = qHTS of pediatric cancer cell lines to identify multiple opportunities for drug repurposing: Primary screen for control Hh wild type fibroblast cells (AID 1347106); note: nearly all actives have a fitted effect of over 55% in size
# Summary of the method: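 Viability after 48 h compound treatment at 37C, 500-1,000 cells/well, read as ATP luminescence with CellTiter-Glo. Primary screens used 11-point (MIPE, 0.78 nM-46 µM) or 8-point (NPC, 0.59 nM-46 µM) final concentrations; follow-up screens used 11-point dilutions.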
# Potency is the fitted concentration of half-maximal effect; tags give direction and shape of the fitted curve.
SMILES,Potency [1],Potency [2],Potency [3],Potency [4],Potency [5],Potency [6],Potency [7],Potency [8],Potency [9]
CSc1ccc2c(c1)N(CCC1CCCCN1C)c1ccccc1S2 (configuration not stated),"inconclusive: 17.2 µM [cytotoxic, partial curve, poor fit]","inconclusive: 29.9 µM [cytotoxic, single point]","inconclusive: 33.5 µM [cytotoxic, single point]",active: 26.6 µM,"inconclusive: 26.6 µM [cytotoxic, single point]",–,–,–,–
COc1cc(F)c(C(C)C)cc1-c1ccc(C(F)(F)F)cc1CN1C(=O)O[C@H](c2cc(C(F)(F)F)cc(C(F)(F)F)c2)[C@@H]1C,"inconclusive: 24.1 µM [cytotoxic, partial curve]","inconclusive: 14.8 µM [cytotoxic, partial curve]",active: 18.7 µM,inactive,inactive,"inconclusive: 17.2 µM [cytotoxic, partial curve]","inconclusive: 6.85 µM [cytotoxic, partial curve, poor fit]",–,–
N#Cc1c(O)c2c(-c3ccc(-c4ccccc4O)cc3)csc2[nH]c1=O,"inconclusive: 8.57 µM [cytotoxic, partial curve]","inconclusive: 37.2 µM [cytotoxic, single point]",–,–,–,inactive,–,–,–
c1ccc(CNc2nc(NCc3ccccc3)c3ccccc3n2)cc1,active: 6.81 µM,active: 18.7 µM,active: 20.9 µM,–,"inconclusive: 37.2 µM [cytotoxic, single point]",active: 24.3 µM,–,"inconclusive: 37.2 µM [cytotoxic, single point]","inconclusive: 18.7 µM [cytotoxic, partial curve]"
CC(C)(C)CC(C)(C)c1ccc(OCCOCC[N+](C)(C)Cc2ccccc2)cc1,"inconclusive: 24.4 µM [cytotoxic, single point]","inconclusive: 21.1 µM [cytotoxic, single point]",–,–,active: 26.6 µM,–,active: 6.17 µM,active: 10.6 µM,"inconclusive: 29.9 µM [cytotoxic, single point]"
CC(C)C[C@H](NC(=O)[C@@H](O)[C@H](N)Cc1ccccc1)C(=O)O,active: 24.1 µM,"inconclusive: 23.5 µM [cytotoxic, single point]","inconclusive: 29.6 µM [cytotoxic, single point]",–,"inconclusive: 29.6 µM [cytotoxic, single point]",active: 30.6 µM,–,"inconclusive: 26.4 µM [cytotoxic, single point]",–
Cc1ccc(O)c2ncccc12,active: 7.7 µM,active: 2.37 µM,"inconclusive: 29.9 µM [cytotoxic, single point]",–,active: 10.6 µM,–,"inconclusive: 21.9 µM [cytotoxic, partial curve]","inconclusive: 26.6 µM [cytotoxic, single point]","inconclusive: 29.9 µM [cytotoxic, single point]"
OCc1ccccc1O[C@@H]1O[C@H](CO)[C@H](O)[C@H](O)[C@H]1O,inactive,inactive,–,–,–,–,inactive,–,–
O[C@@H](c1cc(C(F)(F)F)nc2c(C(F)(F)F)cccc12)[C@H]1CCCCN1,active: 30.7 µM,"inconclusive: 33.5 µM [cytotoxic, single point]","inconclusive: 23.7 µM [cytotoxic, single point]",–,–,–,–,"inconclusive: 23.7 µM [cytotoxic, single point]",–
CCCCCCCCNC(C)C(O)c1ccc(SC(C)C)cc1 (configuration not stated),active: 15.4 µM,"inconclusive: 29.9 µM [cytotoxic, single point]","inconclusive: 29.9 µM [cytotoxic, single point]","inconclusive: 26.6 µM [cytotoxic, single point]",–,"inconclusive: 24.6 µM [cytotoxic, single point]",–,"inconclusive: 29.9 µM [cytotoxic, single point]",–
CN(C)c1ccc(-c2nc3ncc(Cl)c(N4CCN(CC(=O)Nc5nccs5)CC4)c3[nH]2)cc1,"inconclusive: 24.1 µM [cytotoxic, partial curve]","inconclusive: 2.35 µM [cytotoxic, full curve, poor fit]",–,"inconclusive: 2.96 µM [cytotoxic, partial curve, poor fit]",–,–,"inconclusive: 2.73 µM [cytotoxic, partial curve]","inconclusive: 13.2 µM [cytotoxic, partial curve, poor fit]",–
CC[C@]12C=CCN3CC[C@@]4(c5cc([C@@]6(C(=O)OC)C[C@H]7C[C@@H](C(C)(F)F)CN(Cc8c6[nH]c6ccccc86)C7)c(OC)cc5N(C)[C@H]4[C@@](O)(C(=O)OC)[C@H]1OC(C)=O)[C@@H]32,"inconclusive: 0.0038 µM [cytotoxic, full curve, poor fit]",active: 0.132 µM,–,active: 0.0059 µM,–,active: 0.0343 µM,active: 0.0193 µM,"inconclusive: 0.0264 µM [cytotoxic, full curve]",–
COc1ccc(Nc2cc(-c3cnc(N)nc3)nc(N3CCOCC3)n2)cn1,active: 7.64 µM,active: 2.96 µM,–,–,–,active: 21.7 µM,–,–,"inconclusive: 4.69 µM [cytotoxic, full curve, poor fit]"
C1CCC(C(CC2CCCCN2)C2CCCCC2)CC1 (configuration not stated),"inconclusive: 38.3 µM [cytotoxic, single point]","active: 21.1 µM and inconclusive: 29.6 µM [cytotoxic, single point]","inconclusive: 33.5 µM [cytotoxic, single point] and inconclusive: 26.4 µM [cytotoxic, single point]",active: 21.1 µM and active: 29.6 µM,"inconclusive: 37.2 µM [cytotoxic, single point]",active: 5.5 µM and active: 30.6 µM,–,–,"inconclusive: 33.5 µM [cytotoxic, single point]"
COc1ccc(S(=O)(=O)Nc2cc(-c3c(O)ccc4ccccc34)c(O)c3ccccc23)cc1,"inconclusive: 30.4 µM [cytotoxic, partial curve, poor fit]",active: 18.7 µM,–,active: 29.6 µM,–,active: 30.6 µM,–,"inconclusive: 23.5 µM [cytotoxic, single point]",–
C#CCC(Cc1cnc2nc(N)nc(N)c2n1)c1ccc(C(=O)N[C@@H](CCC(=O)O)C(=O)O)cc1 (some centres not stated),"inconclusive: 15.2 µM [cytotoxic, partial curve]","inconclusive: 0.296 µM [cytotoxic, full curve]","inconclusive: 0.166 µM [cytotoxic, full curve]",active: 0.0743 µM,"inconclusive: 0.0935 µM [cytotoxic, full curve]",active: 0.0485 µM,–,–,–
Nc1nc(Nc2ccc(S(N)(=O)=O)cc2)nn1C(=O)c1c(F)cccc1F,active: 8.57 µM,"inconclusive: 1.87 µM [cytotoxic, full curve]","inconclusive: 1.66 µM [cytotoxic, full curve]",–,"inconclusive: 7.43 µM [cytotoxic, full curve]",–,–,–,–
C[C@@H](O)[C@H]1C(=O)N2C(C(=O)O)=C(S[C@@H]3CN[C@H](C(=O)N(C)C)C3)[C@H](C)[C@H]12,inactive,–,–,–,inactive,inactive,–,–,–
COC(=O)c1ccc2c(C(=Nc3ccc(N(C)C(=O)CN4CCN(C)CC4)cc3)c3ccccc3)c(O)[nH]c2c1,active: 6.07 µM,–,–,"inconclusive: 10.5 µM [cytotoxic, partial curve]","inconclusive: 2.96 µM [cytotoxic, full curve]","inconclusive: 2.73 µM [cytotoxic, full curve]",active: 5.44 µM,"inconclusive: 4.69 µM [cytotoxic, partial curve]","inconclusive: 33.2 µM [cytotoxic, single point]"
CN1[C@@H]2CC(OC(=O)[C@H](CO)c3ccccc3)C[C@H]1[C@@H]1O[C@@H]12 (some centres not stated),inactive,–,inactive,"inconclusive: 29.9 µM [cytotoxic, single point]",–,–,–,–,–
CCc1cc(C(N)=S)ccn1,"inconclusive: 42.9 µM [cytotoxic, single point]",–,inactive,–,inactive,–,inactive,inactive,–
OCCN1CCN(CCCN2c3ccccc3C=Cc3ccccc32)CC1,"inconclusive: 0.0097 µM [cytotoxic, full curve, poor fit]",–,–,"inconclusive: 21.1 µM [cytotoxic, single point]",–,inactive,"inconclusive: 24.6 µM [cytotoxic, partial curve, poor fit]",–,–
COc1cccc(CCc2ccccc2OCC(CN(C)C)OC(=O)CCC(=O)O)c1 (configuration not stated),active: 17.2 µM,–,"inconclusive: 23.7 µM [cytotoxic, single point]","inconclusive: 23.7 µM [cytotoxic, single point]",–,"inconclusive: 38.9 µM [cytotoxic, partial curve, poor fit]","inconclusive: 27.6 µM [cytotoxic, partial curve]","inconclusive: 33.5 µM [cytotoxic, single point]",–
CC(=O)OCC(=O)NCCCOc1cccc(CN2CCCCC2)c1,inactive,–,–,–,–,inactive,inactive,–,–

# From PubChem BioAssay (NCATS)
